# Some of the results follow.
# B1: DC-ASGPR Long (Homo sapiens) (protein)
# chain: MTRTYENFQYLENKVKVQGFKNGPLPLQSLLQRLRSGPCHLLLSLGLGLLLLVIICVVGFQNSKFQRDLVTLRTDFSNFTSNTVAEIQALTSQGSSLEETIASLKAEVEGFKQERQAGVSELQEHTTQKAHLGHCPHCPSVCVPVHSEMLLRVQQLVQDLKKLTCQVATLNNNASTEGTCCPVNWVEHQDSCYWFSHSGMSWAEAEKYCQLKNAHLVVINSREEQNFVQKYLGSAYTWMGLSDPEGAWKWVDGTDYATGFQNWKPGQPDDWQGHGLGGGEDCAHFHPDGGWNDDVCQRPYHWVCEAGLGQTSQESH
# How the values were obtained:
# Test in all cases: glycan array binding signal (z-score within array); higher = stronger binding
# Conditions in all cases: glycan notation: IUPAC condensed, linker removed
# [1] = molecular target: Fuc(a1-2)[GalNAc(a1-3)]Gal(b1-3)GlcNAc(b1-3)GalNAc
# In short: (§1)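 Columns mapping to the same glycan were averaged after glycan names were converted to IUPAC-condensed notation. The data come from 3228 arrays in the Consortium for Functional Glycomics database, limited to those with an available protein sequence. Binding is reported as a within-array Z-score averaged across arrays of one protein sequence and across linkers.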
# [2] = molecular target: Fuc(a1-2)[GalNAc(a1-3)]Gal(b1-3)GlcNAc(b1-6)GalNAc
# In short: as §1
# [3] = molecular target: Fuc(a1-2)[GalNAc(a1-3)]Gal(b1-4)Glc
# In short: as §1
# [4] = molecular target: Fuc(a1-2)[GalNAc(a1-3)]Gal(b1-4)GlcNAc
# In short: as §1
# [5] = molecular target: Fuc(a1-2)[GalNAc(a1-3)]Gal(b1-4)GlcNAc(b1-2)Man
# In short: as §1
# [6] = molecular target: Fuc(a1-2)[GalNAc(a1-3)]Gal(b1-4)GlcNAc(b1-2)Man(a1-3)[Fuc(a1-2)[GalNAc(a1-3)]Gal(b1-4)GlcNAc(b1-2)Man(a1-6)]Man(b1-4)GlcNAc(b1-4)GlcNAc
# In short: as §1
# [7] = molecular target: Fuc(a1-2)[GalNAc(a1-3)]Gal(b1-4)GlcNAc(b1-2)Man(a1-3)[Fuc(a1-2)[GalNAc(a1-3)]Gal(b1-4)GlcNAc(b1-2)Man(a1-6)]Man(b1-4)GlcNAc(b1-4)[Fuc(a1-6)]GlcNAc
# In short: as §1
# [8] = molecular target: Fuc(a1-2)[GalNAc(a1-3)]Gal(b1-4)GlcNAc(b1-3)Gal(b1-4)GlcNAc
# In short: as §1
# [9] = molecular target: Fuc(a1-2)[GalNAc(a1-3)]Gal(b1-4)GlcNAc(b1-3)Gal(b1-4)GlcNAc(b1-3)Gal(b1-4)GlcNAc
# In short: as §1
# [10] = molecular target: Fuc(a1-2)[GalNAc(a1-3)]Gal(b1-4)GlcNAc(b1-3)GalNAc
# In short: as §1
# [11] = molecular target: Fuc(a1-2)[GalNAc(a1-3)]Gal(b1-4)GlcNAc(b1-3)[Fuc(a1-2)[GalNAc(a1-3)]Gal(b1-4)GlcNAc(b1-6)]GalNAc
# In short: as §1
# [12] = molecular target: Fuc(a1-2)[GalNAc(a1-3)]Gal(b1-4)GlcNAc(b1-6)GalNAc
# In short: as §1
# [13] = molecular target: Fuc(a1-2)[GalNAc(a1-3)]Gal(b1-4)[Fuc(a1-3)]GlcNAc
# In short: as §1
# [14] = molecular target: Fuc(a1-2)[GalNAc(a1-3)]Gal(b1-4)[Fuc(a1-3)]GlcNAc(b1-3)GalNAc
# In short: as §1
# [15] = molecular target: Fuc(a1-2)[GalNAc(a1-4)]Gal(b1-4)GlcNAc
# In short: as §1
# [16] = molecular target: Fuc(a1-2)[GalNAc(b1-3)]Gal
# In short: as §1
# Fuc(a1-3)GlcNAc = molecular target: Fuc(a1-3)GlcNAc
# In short: as §1
# [17] = molecular target: Fuc(a1-3)[Gal(b1-4)]Glc6S
# In short: as §1
# [18] = molecular target: Fuc(a1-3)[Gal(b1-4)]GlcNAc
# In short: as §1
# [19] = molecular target: Fuc(a1-3)[Gal(b1-4)]GlcNAc(b1-2)Man
# In short: as §1
# [20] = molecular target: Fuc(a1-3)[Gal(b1-4)]GlcNAc(b1-2)Man(a1-3)[Fuc(a1-3)[Gal(b1-4)]GlcNAc(b1-2)Man(a1-6)]Man(b1-4)GlcNAc(b1-4)GlcNAc
# In short: as §1
# [21] = molecular target: Fuc(a1-3)[Gal(b1-4)]GlcNAc(b1-2)Man(a1-3)[Fuc(a1-3)[Gal(b1-4)]GlcNAc(b1-2)Man(a1-6)]Man(b1-4)GlcNAc(b1-4)[Fuc(a1-6)]GlcNAc
# In short: as §1
# [22] = molecular target: Fuc(a1-3)[Gal(b1-4)]GlcNAc(b1-3)Gal(b1-3)[Fuc(a1-4)]GlcNAc
# In short: as §1
# [23] = molecular target: Fuc(a1-3)[Gal(b1-4)]GlcNAc(b1-3)Gal(b1-4)[Fuc(a1-3)]GlcNAc
# In short: as §1
# [24] = molecular target: Fuc(a1-3)[Gal(b1-4)]GlcNAc(b1-3)Gal(b1-4)[Fuc(a1-3)]GlcNAc(b1-3)Gal(b1-4)[Fuc(a1-3)]GlcNAc
# In short: as §1
# [25] = molecular target: Fuc(a1-3)[Gal(b1-4)]GlcNAc(b1-3)GalNAc
# In short: as §1
# [26] = molecular target: Fuc(a1-3)[Gal(b1-4)]GlcNAc(b1-6)GalNAc
# In short: as §1
# [27] = molecular target: Fuc(a1-3)[Gal(b1-4)]GlcNAc(b1-6)[Gal(b1-3)GlcNAc(b1-3)]Gal(b1-4)Glc
# In short: as §1
# [28] = molecular target: Fuc(a1-3)[Gal(b1-4)]GlcNAc6S
# In short: as §1
# [29] = molecular target: Fuc(a1-3)[Gal3S(b1-4)]Glc
# In short: as §1
# [30] = molecular target: Fuc(a1-3)[Gal3S(b1-4)]GlcNAc
# In short: as §1
# [31] = molecular target: Fuc(a1-3)[Gal3S(b1-4)]GlcNAc6S
# In short: as §1
# [32] = molecular target: Fuc(a1-3)[GalNAc(b1-4)]GlcNAc
# In short: as §1
# [33] = molecular target: Fuc(a1-3)[GalNAc(b1-4)]GlcNAc6S
# In short: as §1
# Fuc(a1-4)GlcNAc = molecular target: Fuc(a1-4)GlcNAc
# In short: as §1
# Fuc(b1-3)GlcNAc = molecular target: Fuc(b1-3)GlcNAc
# In short: as §1
# Gal(a1-2)Gal = molecular target: Gal(a1-2)Gal
# In short: as §1
binder,measurement,setting,value
B1,glycan array binding signal (z-score),[1],-0.324
same,glycan array binding signal (z-score),[2],2.6
same,glycan array binding signal (z-score),[3],-0.051
same,glycan array binding signal (z-score),[4],0.574
same,glycan array binding signal (z-score),[5],0.051
same,glycan array binding signal (z-score),[6],0.121
same,glycan array binding signal (z-score),[7],-0.197
same,glycan array binding signal (z-score),[8],-0.618
same,glycan array binding signal (z-score),[9],-0.36
same,glycan array binding signal (z-score),[10],-0.432
same,glycan array binding signal (z-score),[11],0.501
same,glycan array binding signal (z-score),[12],5.11
same,glycan array binding signal (z-score),[13],-0.338
same,glycan array binding signal (z-score),[14],-0.494
same,glycan array binding signal (z-score),[15],3.67
same,glycan array binding signal (z-score),[16],5.95
same,glycan array binding signal (z-score),Fuc(a1-3)GlcNAc,-0.379
same,glycan array binding signal (z-score),[17],-0.444
same,glycan array binding signal (z-score),[18],-0.353
same,glycan array binding signal (z-score),[19],-0.169
same,glycan array binding signal (z-score),[20],0.96
same,glycan array binding signal (z-score),[21],-0.507
same,glycan array binding signal (z-score),[22],0.105
same,glycan array binding signal (z-score),[23],-0.719
same,glycan array binding signal (z-score),[24],-0.281
same,glycan array binding signal (z-score),[25],-0.143
same,glycan array binding signal (z-score),[26],0.785
same,glycan array binding signal (z-score),[27],0.019
same,glycan array binding signal (z-score),[28],-0.22
same,glycan array binding signal (z-score),[29],0.219
same,glycan array binding signal (z-score),[30],-0.08
same,glycan array binding signal (z-score),[31],0.1
same,glycan array binding signal (z-score),[32],1.59
same,glycan array binding signal (z-score),[33],0.742
same,glycan array binding signal (z-score),Fuc(a1-4)GlcNAc,-0.267
same,glycan array binding signal (z-score),Fuc(b1-3)GlcNAc,-0.173
same,glycan array binding signal (z-score),Gal(a1-2)Gal,-0.325

# Reference: the supplement of paper PMC8728848
